# Screen size: about 390,000 compounds; about 4,700 (1.2%) were called active. This list was built around the results that the source calls inconclusive (neither active nor inactive); the mix of calls is not that of the screen. The call rests on the fitted dose curve; in most records, active means well fitted inhibition curve with a large enough effect; inconclusive means small, poorly fitted or top-dose-only effect, or another doubt; inactive means no such curve, though single readings can be large or run the other way. Potencies beside an inconclusive call are fits to weak or partial responses and may not hold up.
# Biological target: DNA polymerase eta (Homo sapiens) (UniProt Q9Y253)
# Test: qHTS for Inhibitors of Polymerase Eta
# Settings: recombinant Pol eta, fluorescent DNA replication assay; series mostly up to 114 µM
# Procedure, shortened: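 Pol eta (10 nM) was preincubated with compounds for 15 min at room temperature, after which fluorescent replication substrate (50 nM final) was added to start the reaction. Fluorescence was read kinetically at 0 and 10 min.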
# Potency means the concentration at half of the fitted maximal effect; tags describe the fitted curve by direction and shape.
# Chain of UniProt Q9Y253 (Q9Y253 whole entry, looked up): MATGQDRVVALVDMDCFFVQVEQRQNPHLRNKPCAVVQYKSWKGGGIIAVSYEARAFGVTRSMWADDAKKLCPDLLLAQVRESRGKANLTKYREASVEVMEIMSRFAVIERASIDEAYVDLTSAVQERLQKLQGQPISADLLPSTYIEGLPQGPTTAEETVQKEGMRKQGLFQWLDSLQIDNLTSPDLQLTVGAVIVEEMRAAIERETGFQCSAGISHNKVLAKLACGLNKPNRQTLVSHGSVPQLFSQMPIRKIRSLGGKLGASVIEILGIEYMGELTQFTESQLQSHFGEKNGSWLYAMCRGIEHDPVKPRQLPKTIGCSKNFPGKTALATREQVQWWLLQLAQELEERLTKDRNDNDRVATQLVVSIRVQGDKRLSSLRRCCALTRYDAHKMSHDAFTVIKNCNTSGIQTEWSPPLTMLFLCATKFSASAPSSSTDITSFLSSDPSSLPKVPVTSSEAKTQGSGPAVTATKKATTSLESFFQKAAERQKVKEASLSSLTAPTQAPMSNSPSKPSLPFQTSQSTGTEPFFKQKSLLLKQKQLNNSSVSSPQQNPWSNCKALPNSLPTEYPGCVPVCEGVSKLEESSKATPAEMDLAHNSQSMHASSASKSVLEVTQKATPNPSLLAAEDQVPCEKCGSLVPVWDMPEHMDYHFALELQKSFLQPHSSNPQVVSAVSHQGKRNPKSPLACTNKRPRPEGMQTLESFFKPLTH
row,Compound,Potency
1,Cc1c(C(=O)O)sc2nc(/C=C/c3cccc(O)c3)[nH]c(=O)c12,active: 35.5 µM
2,COC(=O)CNC(=O)c1cn(-c2ccc(C)c(C)c2)c(=O)c2ccccc12,"inconclusive: 28.2 µM [inhibitor, single point]"
3,Cc1ccc(NC(=O)c2ccc3c(=O)n4c(nc3c2)CCC4)cc1S(=O)(=O)N(C)C,"inconclusive: 25.1 µM [inhibitor, single point]"
4,O=C(NC1=CC(=O)c2ccccc2C1=O)c1ccccc1,active: 89.1 µM
5,COc1cc(Cl)c(C)cc1NC(=O)COc1ccccc1[N+](=O)[O-],"inconclusive: 22.4 µM [inhibitor, partial curve]"
6,Oc1[nH]c2ccccc2c1N=Nc1ccccn1,"inconclusive: 7.08 µM [inhibitor, partial curve, poor fit]"
7,CCOc1ccc(C(=O)c2cn(CC(=O)Nc3cc(OC)cc(OC)c3)c3ccc(F)cc3c2=O)cc1,"inconclusive: 31.6 µM [inhibitor, full curve]"
8,CCc1nc2ccc(C(=O)N(CC)CC(=O)Nc3c(F)cccc3F)cc2nc1CC,active: 35.5 µM
9,O=C(COC(=O)CSc1cccc2cccc(Cl)c12)Nc1ncc(C(F)(F)F)cc1Cl,"inconclusive: 12.6 µM [inhibitor, partial curve, poor fit]"
10,O=C(CNC(=O)c1ccco1)N/N=C/c1cccs1,"inconclusive: 14.1 µM [inhibitor, partial curve, poor fit]"
11,Cc1ccc(/C=C/C(=O)Nc2nn[nH]n2)o1,"inconclusive: 25.1 µM [inhibitor, partial curve, poor fit]"
12,Cc1cc(C)cc(OCC(=O)OC/C(O)=C(\C#N)c2nc3ccccc3[nH]2)c1,"inconclusive: 15.8 µM [inhibitor, partial curve, poor fit]"
13,O=C(C=Cc1ccccc1)CC(c1ccccc1)N1CCOCC1 (stereo unspecified),"inconclusive: 56.2 µM [inhibitor, partial curve, poor fit]"
14,CC(=O)c1cccc(NC(=O)Cn2c(SCC(=O)Nc3ccc(F)cc3)nc3ccccc32)c1,inactive
15,Cc1ccc(/C=C/c2nc3ccccc3c(=O)[nH]2)cc1,inactive
16,Cc1cc2ccccn2c1C(=O)c1cccc(F)c1,"inconclusive: 79.4 µM [inhibitor, partial curve, poor fit]"
17,CC(=O)NC1C(=O)N(CCN2CCOCC2)c2ccc(C)cc21 (stereo unspecified),active: 25.1 µM
18,CCC1CCc2c(sc3nc(SCC(=O)NCc4ccco4)n(-c4ccccc4)c(=O)c23)C1 (stereo unspecified),"inconclusive: 25.1 µM [inhibitor, partial curve, poor fit]"
19,CC(NC(=O)COC(=O)COc1cccc2c1OC(C)(C)C2)c1ccccc1 (stereo unspecified),inactive
20,COc1cc(C(CC(=O)N2CCCC2)c2c(OC)cc(OC)c3c(-c4ccccc4)cc(=O)oc23)cc(OC)c1OC (stereo unspecified),active: 39.8 µM
21,O=C(COc1ccc(-c2ccccc2)cc1)NNC(=O)Nc1ccc(F)cc1F,"inconclusive: 31.6 µM [inhibitor, partial curve, poor fit]"

row,Compound,Potency
1,CCOc1ccc(CC(=O)Nc2c(C(=O)c3ccc(F)cc3)oc3ccccc23)cc1OCC,inactive
2,O=C(O)C(c1ccccc1)N1C(=O)/C(=C/c2cccs2)SC1=S (stereo unspecified),inactive
3,CCOCCCNC(=O)/C(C#N)=C/c1ccc(-c2ccc(S(=O)(=O)N3CCOCC3)cc2)o1,"inconclusive: 28.2 µM [inhibitor, partial curve, poor fit]"
4,Fc1cccc(-c2nc(-c3ccncc3)no2)c1,inactive
5,O=C(CCCN1C(=O)/C(=C/c2cccs2)SC1=S)NNC(=O)c1cccnc1,"inconclusive: 50.1 µM [inhibitor, partial curve, poor fit]"
6,COc1cccc(CN(C)CC(=O)NC(=O)NCc2ccco2)c1,active: 17.8 µM
7,C#CCOCCOCCOCCNc1nc(N2CCN(C(=O)CCCCCCCCCCNC(=O)[C@H](CCCCN)n3cc(C[C@@H](C)CC)nn3)CC2)nc(N2CCN(C(=O)CCCCCCCCCCNC(=O)[C@H](CCCCN)n3cc(C[C@@H](C)CC)nn3)CC2)n1,active: 79.4 µM
8,O=C(NC(c1ccccc1)c1ccccc1)c1ccc(CO)cc1,"inconclusive: 89.1 µM [inhibitor, partial curve, poor fit]"
9,COc1cccc(-c2cn3c(n2)sc2cc(C(=O)NCc4cccs4)ccc23)c1,inactive
10,O=C(/C=C/c1cccc(Cl)c1)c1ccc([N+](=O)[O-])o1,"inconclusive: 39.8 µM [inhibitor, partial curve, poor fit]"
11,COC(=O)/C=C/C(=O)Nc1ccc(O)c(Cl)c1,"inconclusive: 20 µM [inhibitor, partial curve]"
12,CC/C(=N\N=C1\SC(C)C(=O)N1Cc1ccco1)c1ccccc1 (stereo unspecified),"inconclusive: 89.1 µM [inhibitor, partial curve, poor fit]"
13,O=C(NNS(=O)(=O)c1cccc(Cl)c1)c1cc(-c2ccc(F)cc2)nc2ccccc12,"inconclusive: 50.1 µM [inhibitor, partial curve, poor fit]"
14,O=C(Nc1nnc(SCc2c(Cl)cccc2Cl)s1)C1CC(=O)N(c2ccc3c(c2)OCCO3)C1 (stereo unspecified),"inconclusive: 56.2 µM [inhibitor, partial curve, poor fit]"
15,Cc1cc(/C=C2/C(=N)N3C(=NC2=O)SN=C3S(C)(=O)=O)c(C)n1-c1ccc(F)cc1,"inconclusive: 50.1 µM [inhibitor, partial curve]"
16,Cc1ccc(S(=O)(=O)N2[C@@H](c3ccc(C(C)(C)C)cc3)C(C(=O)O)=CC[C@H]2c2ccc(C(C)C)cc2)cc1,active: 39.8 µM
17,COC(=O)Cc1ccc(NC(=S)NCCO)cc1,inactive
18,COc1ccccc1Oc1nc2c(c(=O)n(C)c(=O)n2C)n1Cc1cccc(Br)c1,"inconclusive: 79.4 µM [inhibitor, partial curve, poor fit]"
19,C=CCn1c(=S)[nH]c2scc(-c3ccco3)c2c1=O,active: 17.8 µM
20,CCc1nc2sc3ccccc3c(=O)c2c(=O)n1Cc1ccco1,active: 31.6 µM
